The record followed here is the supplement of paper PMC11417369.

± gives the standard deviation of the averaged measurements. This is one part of the list.

The assay deals with PfAP2-G AP2 domain (GST-tagged). Briefly: gcPBM binding intensity (ln(normalized median fluorescence intensity)); higher = stronger DNA binding. Summed up:
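The binding buffer was 1× PBS containing 1% milk, 0.2 mg/ml BSA, 0.5% salmon testes DNA and 0.03% Triton X-100. In it, GST-tagged P. falciparum DNA-binding domains expressed in E. coli were applied for 1 h to an Agilent 4 × 180k array of primer-extended double-stranded 36-bp intergenic genomic probes plus negative controls. Binding intensity, read with Alexa488 anti-GST antibody and a 488 nm scan, is the highest Masliner-normalised natural-log median intensity across replicate spots of either probe orientation.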
Consider “TAATTTTTTTTTTTTTTTCATTCTTTTCCTTTGATT [CACACA_negctrl_site1365]”, for which the “gcPBM binding intensity (ln)” value was 9.54 ± 0.11. With “TTTTTTTTTTTTTGGTGTACATTTATAAAAAAAAAA [XGTACX_site8368]” the figure was 11.4 ± 0.88. As to “ACACAAAAAAAAAAAAAAAAAAAAAAAAAAAAGGAA [CACACA_negctrl_site1162]”, the “gcPBM binding intensity (ln)” value came to 10.1 ± 0.59.

For “AATATGTACAGACATACACACATATATATATATATA [CACACA_site1222]”, the “gcPBM binding intensity (ln)” value was found to be 11.2 ± 0.96. As for “CATATCTCAATTTATGCATGCAGGATTTTTCTAATA [TGCATGCA_site516]”, the “gcPBM binding intensity (ln)” value turned out to be 9.95 ± 0.11. With “TTTTTAATAACACTTTTGAAAAATAAAATAAAATAA [CACACA_negctrl_site821]” the figure was 9.91 ± 0.36; with “TTTTATGTTCTTAATGCACACTTATAAGTATCTTAT [CACACA_site4895]”, 10.4 ± 0.34. With “TTTTTTTATTATTCTTATATAAAAATTTTTTTTAAT [CACACA_negctrl_site159]” the figure was 9.54 ± 0.26; with “ACATATAAGATTATGTGTCCACAAAAAAATAAAACA [XGTACX_site2867]”, 11.3 ± 0.67. With “AATAACAAAATAGGCACACGCACATATATATATATA [CACACA_site1497]” the figure was 10.2 ± 0.23; with “TACATATTTATATACACACACACACGGATATTTATA [CACACA_site7239]”, 10.2 ± 0.13.

For “ATTCAAAAGATGTATACACACATGTGGATAATATAA [CACACA_site2443]”, the “gcPBM binding intensity (ln)” value amounted to 10.2 ± 0.11. Regarding “GCACCCTGTATGAATGCACACATTCATAGAATTGCT [CACACA_site5475]”, the “gcPBM binding intensity (ln)” value stood at 9.95 ± 0.071. With “ATATATATAAAAGAAACAACATTTATTCAAAAGGTA [CACACA_negctrl_site749]” the figure was 9.76 ± 0.028; with “TTATTCTTTTAATATACACACTTTGTCTTTTCGCGC [CACACA_site5525]”, 9.83 ± 0.099; with “TACTTTTATAAAAATTTTATCAAATTCTATATATGT [TGCATGCA_negctrl_site308]”, 9.97 ± 0.16. For the sequence “TTTTAAATTTAGTGTAGTACACTTTTTTCAAATATA [XGTACX_site4659]”, the “gcPBM binding intensity (ln)” value amounted to 11.7 ± 1.2. With “ATATTATCATTTTTTTTAATGGAAAAAAAAAAAAAA [CACACA_negctrl_site1298]” the figure was 9.88 ± 0.35. With “ATATAATTCAAATACAGTACATATACAATATATACA [XGTACX_site1191]” the figure was 10.9 ± 0.77. For the sequence “TAATTTTTTAAACACACACACATATATATATATATA [CACACA_site4230]”, the “gcPBM binding intensity (ln)” value is 10.3 ± 0.64. For “GAATTCCTTTGTGTATGTACATAATGATATTATTTT [XGTACX_site7369]”, the “gcPBM binding intensity (ln)” value was 10.9 ± 0.48. For the sequence “TGATCAAATAAGTTTGCATGTCAACAATGCATATAT [TGCATGCA_site1025]”, the “gcPBM binding intensity (ln)” value was found to be 9.93 ± 0.099.

Regarding “CCCCTTGTGGATTCTACACACAAAAAGTCGTCAAAA [CACACA_site821]”, the “gcPBM binding intensity (ln)” value is 10.8 ± 0.48. With “ATATACATATCATGTAGTACAATTTTTTTACTTTTT [XGTACX_site7988]” the figure was 11.3 ± 0.88; with “TAAAAAAATAAAATTACACACATATATAGATATATA [CACACA_site7273]”, 9.47 ± 0.12.

As for “CACTTTTTTTAAATGTGTACGTATATGAAAATATCA [XGTACX_site4854]”, the “gcPBM binding intensity (ln)” value came out at 11.7 ± 1. The figure for “TAAACAAAAAGGAAGAGTACTTGTAAAATTTGTAAA [XGTACX_site3003]” is 11.2 ± 0.75; for “TATTTATTTGTACATATACACACTTAAATATGTTTA [CACACA_site3902]” it is 11.1 ± 0.71; for “ACAAAAAAAAATATGTTAACTATATATATATATATA [CACACA_negctrl_site346]” it is 9.96 ± 0.45. The figure for “AATTGGGAACTGTAATGTACATATATTGAAAGTATA [XGTACX_site7081]” is 11.1 ± 0.6.

On to “ATATATTTATATATTACACACAATATTGGAGACATA [CACACA_site931]”, for which the “gcPBM binding intensity (ln)” value is 10.2 ± 0.12.

Take “AGAAAACTCGCTTTTCTAAATCTCAAAAAAAAAAAA [XGTACX_negctrl_site94]”: the “gcPBM binding intensity (ln)” value turned out to be 9.49 ± 0.13. The figure for “ATACATATATTAGGATGTACGTTTATTTTAGTTATT [XGTACX_site7169]” is 11.3 ± 0.74; for “TTATATTTCTTGAAGGGTACATACCATTATTTTTAA [XGTACX_site1159]” it is 11.1 ± 0.59. The figure for “GTTTCTATTCACATTTTACACACGTCCATCGCATTT [CACACA_site9142]” is 10.7 ± 0.45. The figure for “TTTTGTTGTATGATAATTCTTTTATCAATATGTCTT [TGCATGCA_negctrl_site567]” is 9.73 ± 0.16; for “ACCAAATTATCAAATGGTACACATAAAATAATAAAA [XGTACX_site865]” it is 11.3 ± 0.74; for “TAATTAACCTATGCATTCATATAGATACATAAATAT [CACACA_negctrl_site885]” it is 9.86 ± 0.014. For “TATAATATTATTTGAAGTACAAACATAAAAGAATTA [XGTACX_site3161]”, the “gcPBM binding intensity (ln)” value amounted to 11.2 ± 0.79. Regarding “AGATCATAATATTATACACACATTATGTATATGTAA [CACACA_site1490]”, the “gcPBM binding intensity (ln)” value stood at 9.82 ± 0.12. With “TGAATACATAAATATAGTACATATATATATATATTA [XGTACX_site8756]” the figure was 10.9 ± 0.74; with “GAACCATTTTTTGGTATACACACGTAATTATAGAAT [CACACA_site1851]”, 10.2 ± 0.14; with “TACAAAAAATTATGGAGTACATATATAATATACAAT [XGTACX_site1004]”, 11.5 ± 0.88. The figure for “AGTTATTTTTATATTTCACACACATATACTTTTACA [CACACA_site9357]” is 10.2 ± 0.14.
